# Reference: paper PMC12564265, “Navigating the Deep Eutectic Solvent Landscape: Experimental and Machine Learning Solubility Explorations of Syringic, p-Coumaric, and Caffeic Acids” (International Journal of Molecular Sciences, 2025)
# The source gives many values for each of these; only a part stands here.
# Assay: Shake-flask solubility with spectrophotometric measurement in neat deep eutectic solvents
# Type: physicochemical
# Description: In order to determine the solubility of the three studied phenolic acids in deep eutectic solvents, a very well-established shake-flask method coupled with spectrophotometric measurements was utilized. The initial procedure involved the preparation of various DESs, which was conducted by mixing their HBA and HBD counterparts in a glass vessel and heating the composition until the formation of a transparent, uniform liquid. […] For additional measurements, the DESs were mixed with water in varying proportions, creating aqueous DES systems. Saturated solutions of CAF, SYR, and COU were obtained by adding excess amounts of these compounds to test tubes containing either a neat deep eutectic solvent or its aqueous solution. Such samples were placed in the Orbital Shaker Incubator ES-20/60 from Biosan (Riga, Latvia) and heated for 24 h at 25 °C, 30 °C, 35 °C, and 40 °C (±0.1 °C) with simultaneous mixing at 60 rpm. Before measurements, the samples were filtered using a PTFE syringe filter from Qpore (Dallas, TX, USA) with a 0.22 μm pore size. In order to avoid possible precipitation of the saturated solutions at decreased temperatures, the test tubes, syringes, pipette tips, and filters were kept at a temperature identical to that of the samples. The spectrophotometric measurements required the preparation of calibration curves for the three APIs. This involved the preparation of a stock solution of each compound in methanol, which was later successfully diluted, and the obtained solutions of varying concentrations were measured using an A360 spectrophotometer from AOE Instruments (Shanghai, China). The wavelength range was set to 200-500 nm, and the resolution was 1 nm. The analytical wavelengths were determined to be 324 nm for caffeic acid, 273 nm for syringic acid, and 308 nm for p-coumaric acid. The final regression equations, obtained after averaging three distinct sets of measurements, are collected in Table 2 together with determination coefficients and limits of detection (LOD) and quantification (LOQ) for the calibration curves. The measurements of the samples were conducted with the same spectrophotometer and identical settings. Methanol was used for the dilution of the samples so that they could remain within the linearity range of the method. Complete spectra of the samples were recorded, but for the solubility determination, the absorbance values at a specific analytical wavelength were considered. These values were combined with the corresponding regression equations of the calibration curves and served for the calculation of the concentration of the three phenolic acids in the studied samples. The densities of such samples were also measured, and for this task 1 mL of each sample was weighed to a precision of 0.1 mg using an AS 110 R2.PLUS analytical balance from […] (Radom, Poland). The obtained densities enabled the calculation of mole fractions of CAF, SYR, and COU dissolved in the studied DESs. For each considered system, three distinct measurements were conducted, and the results were averaged.
# [1] = neat DES Bet - ETG, HBA:HBD molar ratio 1:4, 25 °C
# [2] = neat DES ChCl - DEG, HBA:HBD molar ratio 1:4, 25 °C
# [3] = neat DES ChCl - GLY, HBA:HBD molar ratio 1:1, 25 °C
# [4] = neat DES ChCl - GLY, HBA:HBD molar ratio 1:2, 25 °C
# [5] = neat DES ChCl - GLY, HBA:HBD molar ratio 1:4, 25 °C
# [6] = neat DES ChCl - TEG, HBA:HBD molar ratio 1:1, 25 °C
# [7] = neat DES ChCl - TEG, HBA:HBD molar ratio 1:4, 25 °C
Mole fraction solubility [1] [mole fraction],Mole fraction solubility [2] [mole fraction],Mole fraction solubility [3] [mole fraction],Mole fraction solubility [4] [mole fraction],Mole fraction solubility [5] [mole fraction],Mole fraction solubility [6] [mole fraction],"Mole fraction solubility (neat DES ChCl - TEG, HBA:HBD molar ratio 1:2, 25 °C) [mole fraction]",Mole fraction solubility [7] [mole fraction],"Mole fraction solubility (neat DES ChCl - TEG, HBA:HBD molar ratio 1:2, 25 °C, listed as coumaric acid) [mole fraction]","Mole fraction solubility (neat DES ChCl - TEG, HBA:HBD molar ratio 1:2, 25 °C, listed as syryngic acid) [mole fraction]",SMILES
0.0435±0.0002,0.0648±0.0005,0.0747±0.0004,0.0815±0.0006,0.0756±0.0005,0.0740±0.0005,0.0835±0.0010,0.0824±0.0003,–,–,"O=C(O)C=Cc1ccc(O)c(O)c1 [caffeic acid, 3,4-dihydroxycinnamic acid]"
0.0342±0.0004,0.0706±0.0005,0.0525±0.0004,0.0642±0.0005,0.0595±0.0004,0.0709±0.0006,–,0.0879±0.0006,0.0997±0.0009,–,"O=C(O)C=Cc1ccc(O)cc1 [p-coumaric acid, 4-hydroxycinnamic acid]"
–,0.0338±0.0004,0.0213±0.0002,0.0400±0.0002,0.0310±0.0002,0.0346±0.0004,–,0.0412±0.0005,–,0.0515±0.0004,"COc1cc(C(=O)O)cc(OC)c1O [syringic acid, 4-hydroxy-3,5-dimethoxybenzoic acid]"
